# The list shows a part of the results.
# B1: chr1:19339193:19339294:-|3pUTR|ENSG00000077549|msi1|FALSE|unique (ssRNA)
# RNA: GGGAGUUCUACAGUCCGACGAUCGAGACCGUGUGGUUUUUGUUCACCCGGGCCCCCCGUCUUCCUCCCUGUCCCCCCAUUUAUAGGCAUAAAAUCCACUGUCUGCCAGCCUCCCUUCCCUCCCACCUUUUUGGUACAUUGGUGCAACAGAGGAUUGAGCAUCA
# B2: chr21:43758806:43758907:+|3pUTR|ENSG00000160209|msi1|FALSE|unique (ssRNA)
# RNA: GGGAGUUCUACAGUCCGACGAUCACUUUCUUAAUCCAGUUUUUCAAACUUCUCCCUGUAGACCGUAAGGAUGAAUUCCACAAUAGGAUCCUUUUUAAAAUCGAUUUUAAAUUGUUGCCUAGUCCUGCCAAGGUUAUUAUGUGCCAACAGAGGAUUGAGCAUCA
# B3: chr8:79641408:79641533:+|CDS|ENSG00000104435|unk|FALSE|unique (ssRNA)
# RNA: GGGAGUUCUACAGUCCGACGAUCCCAGGCUUUUGAGCUGAUCUUGAAGCCACCAUCUCCUAUCUCAGAAGCCCCACGAACUUUAGCUUCUCCAAAGAAGAAAGACCUGUCCCUGGAGGAGAUCCAGAAGAAACUGGAGGCUGCCAACAGAGGAUUGAGCAUCA
# B4: chr17:58089832:58089920:+|3pUTR|ENSG00000264364|msi1_unk|total|mutant (ssRNA)
# RNA: GGGAGUUCUACAGUCCGACGAUCAUUCCACUGAACUGUGAUUCUAUGGCUUGGGGCGGAGGGUGGGGUGGGGAUGCCUUCUUCCGGGGCCCUGAGAUGUGUUUGUCUGUGGUGUGUGGGAGUGGGGAGCAGAUUUGUCUUGCUCAACAGAGGAUUGAGCAUCA
# B5: chr5:78475949:78476050:+|3pUTR|ENSG00000085365|msi1|total|mutant (ssRNA)
# RNA: GGGAGUUCUACAGUCCGACGAUCACCCACUGAAAAUUAAUAAUGGUACUUAUGAUUAAAAACGCAUUUAAUACUAACUGCAGCCGUUCUUUCAAGAAUCUUCCGAGAUAAGGAUUGCACAUUGGAAAAGUAAACCAUGUUUCACAACAGAGGAUUGAGCAUCA
# B6: chr13:24434660:24434761:-|CDS|ENSG00000102699|unk|FALSE|unique (ssRNA)
# RNA: GGGAGUUCUACAGUCCGACGAUCCCCUCUGCUUCCUCUCCUUUUCAUUUUCAACCUUCCGCAGCCUCUUUGACUGCCAACCUUAGGCUGCCAAUGGCCUCUGCUUUACCUGAGGCUCUUUGCAGUCAGUCCCGGACUACCCCACAACAGAGGAUUGAGCAUCA
# B7: chr12:909583:909684:+|3pUTR|ENSG00000060237|unk|total|mutant (ssRNA)
# RNA: GGGAGUUCUACAGUCCGACGAUCCCGCUCUGUCCUUUACUUAUUGAGACACUUUAACUUUUUCCUUUGUAUUUCCAUUGUAUCCGAUAAAUAAAUGUGAAUGUAAAAUUGUAUAAAUUACUGUACUUGAAUACUUCUGUUUCCCAACAGAGGAUUGAGCAUCA
# B8: ENSG00000198589:be:win_2451|CDS|ENSG00000198589|bound_else_gene|NA|bound_elsewhere_windowed (ssRNA)
# RNA: GGGAGUUCUACAGUCCGACGAUCGAUACUAAAAGUAAUUGCGACCCUACUUCGAAAUUCUCCCCAGUGCCCAGAGAGCAUGGAGGUUCGCAGAGCCUUUCUUUCUGACAUGAUUAAACUUUUUAAUAACAGUAGAGAAAACAGCAACAGAGGAUUGAGCAUCA
# B9: ENSG00000112146:stop:overlap|stop_codon|ENSG00000112146|stop_codon|NA|stop_codon (ssRNA)
# RNA: GGGAGUUCUACAGUCCGACGAUCACACCCCCUUGUUCUUCGCCAGAGUAAGGAGCUACACAGCUUUCUCAGAAAGGCCUCUGUAGAGCCUCAAGUCCAGUCCUCUAUCACUUUUGCAUGAAUUAAAGUAUAUAGCGCAAAAGACAACAGAGGAUUGAGCAUCA
# B10: chr1:225496770:225496921:-|3pUTR|ENSG00000154380|msi1|total|mutant (ssRNA)
# RNA: GGGAGUUCUACAGUCCGACGAUCUUUUUUAAUUGCAGACAGUAAUGCAUGUCACACUAAUAUGCCGUGGCCUUUUCAAGGCCCCGUCCCAGGGAAAACAUUUUGCCGAGUACCGGGGAGUGGGAGGAAGGGGAGGAAUAAUUUCAACAGAGGAUUGAGCAUCA
# B11: chr9:96387934:96388035:-|3pUTR|ENSG00000165244|msi1|FALSE|unique (ssRNA)
# RNA: GGGAGUUCUACAGUCCGACGAUCAAUAUUUUGUAAAUAUGGACUGCACAGUACAGGGUAGAAAACUACAUAUUGUGGGAAGCUAGAUUUUGCAAGUUUAAUGCAUUCAUUGGAAGCAGUUCUCACAGGAAGCACUUUCUGAAUCAACAGAGGAUUGAGCAUCA
# B12: chr17:57974666:57974767:-|CDS|ENSG00000136451|msi1|FALSE|bound_elsewhere (ssRNA)
# RNA: GGGAGUUCUACAGUCCGACGAUCGAGCAUGAGAAGUCCAGUAAAUGUUUCAAGUGCAGUUAACAUAACCAGCCCAAUGAACAUAGGGCAUCCUGUAACUAUAACCAGUCCAUUAUCCAUGACCUCUCCUUUAACACUCACUACCAACAGAGGAUUGAGCAUCA
# B13: chr15:42745797:42746257:-|CDS|ENSG00000128881|control|control|control (ssRNA)
# RNA: GGGAGUUCUACAGUCCGACGAUCAGUCCCAGUGCCUCUCCUCGAAGCUCAUCCUUGCCUCGCACGUCUAGUUCCUCACCAUCUAGGGCUGGACGGCCCCACCAUGACCAGAGGAGUUCGUCCCCACAUCUGGGGAGAAGCAAGCAACAGAGGAUUGAGCAUCA
# B14: chr3:87253716:87253817:+|CDS|ENSG00000083937|unk|FALSE|unique (ssRNA)
# RNA: GGGAGUUCUACAGUCCGACGAUCUGCCUCUACUUCAAAGGCUACAAUCUCAGAUGAAGAGAUUGAACGGCAACUCAAGGCUUUAGGAGUAGAUUAGUCAAAAGAAGUCAUACUAUUUUGCUUACUUAUAAUUAUGUAGUAUAACAACAGAGGAUUGAGCAUCA
# B15: chr12:106067485:106067586:-|CDS|ENSG00000074590|msi1|FALSE|unique (ssRNA)
# RNA: GGGAGUUCUACAGUCCGACGAUCCCUGAAGAAGCGAAGCAACAGCGAGCAUCGCUCUCACAGCACUGGCUUCAUUGAAGGUGUAGUUGGUCCUGCCUUACCCUCUACUUUCAAGAUGGAGCAGGACUUGUGCAGGACUGGCGUCAACAGAGGAUUGAGCAUCA
# B16: chr21:46004801:46004902:+|3pUTR|ENSG00000142156|msi1|FALSE|unique (ssRNA)
# RNA: GGGAGUUCUACAGUCCGACGAUCAGACUGGGGCCUGGACUGGACAUGAGAGCCCCUUGGUGCCACAGAGGGCUGUGUCUUACUAGAAACAACGCAAACCUCUCCUUCCUCAGAAUAGUGAUGUGUUCGACGUUUUAUCAAAGGCAACAGAGGAUUGAGCAUCA
# B17: chr1:61455842:61455953:+|3pUTR|ENSG00000162599|unk|FALSE|unique (ssRNA)
# RNA: GGGAGUUCUACAGUCCGACGAUCUUUUCUGUAACAUAUUGGAAAAAGAAAAUGCAGUUAUAUUCCUUUUUUAUUUGUUCCUUUAGUUUGUUUUGGUUCAGCAGUCAGCAGUUAAGUAUAUAACAUGGCCCGCAAGGACAAUGACAACAGAGGAUUGAGCAUCA
# B18: chr8:19954154:19954263:+|CDS|ENSG00000175445|unk|total|mutant (ssRNA)
# RNA: GGGAGUUCUACAGUCCGACGAUCACCUAACUUUGAGUAUGCAGAAGCCCCGAGUCGUCUUUCUCCUGAUGAUGCAGAUUUUGCCGACGUCUUACACACAUUCACCAGAGGGUCCCCUGGUCGAAGCAUUGGAAUCCAGAAACCCAACAGAGGAUUGAGCAUCA
# B19: chr6:142752714:142752806:-|3pUTR|ENSG00000010818|msi1_unk|total|mutant (ssRNA)
# RNA: GGGAGUUCUACAGUCCGACGAUCUUUUCUUUACUUUGCUUAUAUUCUUAUAAGCAUUUUUCCGCAGUAAUUUGUACAUAUUUCCGAAUUUGUGUAUCUGCUUUGUAAUAAAUGUAAUUUCUUUCCUUUUUUGGACACUUGGAUCAACAGAGGAUUGAGCAUCA
# B20: chr1:202726062:202726163:-|3pUTR|ENSG00000117139|unk|total|mutant (ssRNA)
# RNA: GGGAGUUCUACAGUCCGACGAUCGAAAUGCACCUGAUUUGCCAUUAUACCCACCAUCAAAAGCAACAUGGCCCUUUGGGUAUCCGUGCAAGAUCCGCCUAAGAACCGAGCCGAUCUCUACCUGGAAGAGGGUGAAACAUGGCUCAACAGAGGAUUGAGCAUCA
# B21: chr4:75577918:75578020:-|3pUTR|ENSG00000138769|unk|total|mutant (ssRNA)
# RNA: GGGAGUUCUACAGUCCGACGAUCGGUUGUUCCGGGAACCAGAAUUUGUGAGUUUUUUUUUUUUUUUUGCCUUAACUAAUUAACCGUGUGUUGCUUUUUUUCCAAAGCCAUUGACCCGAACUCCGCUGAAGAAUUUAACCCGAACAACAGAGGAUUGAGCAUCA
# B22: chrX:48700291:48700392:+|CDS|ENSG00000101945|unk|total|mutant (ssRNA)
# RNA: GGGAGUUCUACAGUCCGACGAUCGCUCCGUCGCUGGGAGCAGGAGCUCAAUGCCAAGCGCAGCCAUCUGGGACGCAUCACUGCCGAGAAUGAGGUGGACCUGGACGGCCCUCCGCGGGCCUUCGUGUACAUCAAUGAGUACCGCAACAGAGGAUUGAGCAUCA
# Biological target: MSI1 full-length (mouse, UniProt Q61474 1-362)
# Test: nsRBNS (natural sequence RNA bind-n-seq); RBNS binding buffer (assumed for nsRBNS): 25 mM Tris pH 7.5, 150 mM KCl, 3 mM MgCl2, 0.01% Triton X-100, 500 ug/ml BSA, 20 U/ml SUPERase-In, 4 C; UNK is unkempt and MSI1 is Musashi-1; names of the RNAs are library labels; protein concentration not given here; high values mean tight binding
# Chain of UniProt Q61474 (Q61474 whole entry): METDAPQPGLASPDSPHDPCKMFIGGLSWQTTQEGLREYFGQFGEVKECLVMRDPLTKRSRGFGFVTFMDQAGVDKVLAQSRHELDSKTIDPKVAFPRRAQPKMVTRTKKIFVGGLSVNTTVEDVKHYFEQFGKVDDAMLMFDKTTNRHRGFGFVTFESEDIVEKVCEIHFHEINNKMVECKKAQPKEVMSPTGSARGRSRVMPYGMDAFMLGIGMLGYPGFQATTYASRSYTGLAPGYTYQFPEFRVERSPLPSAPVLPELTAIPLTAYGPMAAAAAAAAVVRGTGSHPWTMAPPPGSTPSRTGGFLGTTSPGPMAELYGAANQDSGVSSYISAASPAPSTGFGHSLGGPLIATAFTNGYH
row,Binder,binding signal
1,B1,1.08 enrichment R
2,B2,0.936 enrichment R
3,B3,0.458 enrichment R
4,B4,0.908 enrichment R
5,B5,0.81 enrichment R
6,B6,0.759 enrichment R
7,B7,3.1 enrichment R
8,B8,0.961 enrichment R
9,B9,0.583 enrichment R
10,B10,0.618 enrichment R
11,B11,0.404 enrichment R
12,B12,0.639 enrichment R
13,B13,0.361 enrichment R
14,B14,3.62 enrichment R
15,B15,0.282 enrichment R
16,B16,0.891 enrichment R
17,B17,1.53 enrichment R
18,B18,0.588 enrichment R
19,B19,0.478 enrichment R
20,B20,0.333 enrichment R
21,B21,1.9 enrichment R
22,B22,0.399 enrichment R
